Test results as given in PubChem BioAssay (NCI).
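Grown in 96-well plates, cells were treated for 48 hours with each compound at five concentrations. Insufficient inhibition: endpoint recorded as highest concentration tested. GI50 = concentration required for 50% inhibition of growth. TGI marks complete inhibition of growth.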

Test system: NCI-H322M lung
Experiment: NCI tumour cell line growth inhibition, 48 h

| Compound | GI50 [µM] | TGI [µM] |
| --- | --- | --- |
| COc1ccccc1N1CCN(CCCOc2ccc(C(=O)/C=C3/C(=O)Nc4ccccc43)cc2)CC1 | 18.6 | > 91 |
| CCOC1=NC(C(F)(F)F)(C(F)(F)F)N=C(N2CCCCC2)O1 |  | > 100 |
| Cc1ccc(NC(=S)N=Nc2c(O)[nH]c3ccccc23)cc1 |  | > 100 |
| COc1ccc(C(=O)c2cc(C)c(OC)c(C)c2)c(OC)c1N(C(=O)CCl)C(=O)CCl | 0.0694 | > 100 |
| CC(CCC(=O)O)c1ccc(Br)cc1 (configuration not stated) |  | > 100 |
| CCCCCCCCCCCCC(NC(C)=O)(C(=O)OCC)C(=O)OCC | 15.3 | 31.4 |
| C#CCOC(=O)[C@@H](C)c1ccc2cc(OC)ccc2c1 |  | > 100 |
| N[C@@H](Cc1ccc2oc3cc(=O)c4ccccc4c-3nc2c1)C(=O)O |  | > 100 |
| Cc1c(C#N)c(N)n(C2OC(CO)C(O)C(O)C2O)c(=S)c1C#N (configuration not stated) |  | > 100 |
| O=C1c2cc([N+](=O)[O-])sc2C(=O)c2cc([N+](=O)[O-])sc21 |  | 23 |
| ClCCc1ccccc1CC1=NCCc2ccccc21 |  | > 100 |
| COc1ccc(NC(=O)CC(=O)N2N=C(C)C(N=Nc3ccc(C(=O)O)cc3)C2=O)cc1 (configuration not stated) |  | > 100 |
| COc1ncc(C#CC(=O)c2ccccc2)c(OC)n1 |  | 31.8 |
| CCC1(N)C(=O)OCc2c1cc1n(c2=O)Cc2cc3ccccc3nc2-1 (configuration not stated) | 21.6 | > 100 |
| COC(=O)c1ccc(/C=C/S(=O)(=O)c2ccccc2)cc1 |  | > 100 |
| CCCCCCC/C=C1\CCC(CN(C)C)C1=O (configuration not stated) |  | 33.3 |
| Cn1c(O)c(C=Nc2ccc(Cl)cc2Cl)c(=O)n(C)c1=O |  | > 100 |
| O=C1NC(N2CCCCC2)=N/C1=C\c1ccccc1 |  | > 100 |
| COCC(=O)NC/C=C/c1ccc2ncnc(Nc3ccc(Oc4ccc(C)nc4)c(C)c3)c2c1 | 15.9 | > 71.2 |
| CC(=O)OC1(C#N)CC2OC1C1N=NN(C(=O)OC(C)(C)C)C21 (configuration not stated) |  | > 100 |
| CCCCCCCCCC[N+](C)(C)C | 3.65 | 15.4 |

| Compound | GI50 [µM] | TGI [µM] |
| --- | --- | --- |
| O=C(O)CNC(=O)C1NC(C(F)(F)F)(C(F)(F)F)OC1(C(F)(F)F)C(F)(F)F (configuration not stated) |  | > 100 |
| NS(=O)(=O)c1ccc(N2C(=O)C(=O)N(c3ccccc3)C2=S)cc1 |  | > 100 |
| [N-]=[N+]=NC1C2CC3CC(C2)CC1C3 (configuration not stated) |  | > 100 |
| N#Cc1ccc(NC(=O)Nc2nc3ccc(OC(F)(F)F)cc3s2)cc1 | 2.4 | 11.2 |
| C=C(C1=CC(=O)C(C)(C)O1)[C@@H]1CC=C([C@@H]2CC[C@H]3[C@@]2(C)CC[C@H]2C(C)(C)C(=O)[C@H](OC(=O)CC(C)(O)CC(=O)O)C[C@]32C)[C@H](O)O1 (some centres not stated) |  | > 75 |
| O=C1CCC(N2C(=O)c3cccc(NCCOCCOCCNC(=O)c4cc5c(o4)C(=O)c4ccccc4C5=O)c3C2=O)C(=O)N1 (configuration not stated) | 1.81 | 3.28 |
| CC1(C)CC[C@]2(C(=O)O)CC[C@]3(C)C(=CC[C@@H]4[C@@]5(C)CC[C@H](OC6OC(CO)C(O)C(O)C6O)C(C)(C)[C@@H]5CC[C@]43C)[C@@H]2C1 (some centres not stated) |  | 2.98 |
| NC(Cc1c[nH]c2cc(F)ccc12)C(=O)O (configuration not stated) | 1180 | > 2500 |
| COc1cc2c3cc1Oc1c(OC)c(OC)cc4c1C(Cc1ccc(O)c(c1)-c1cc(ccc1OC)CC3N(C)CC2)N(C)CC4 (configuration not stated) |  | > 100 |
| CN1CCN(Cc2ccc(NC(=O)c3cccc(C#Cc4c(N)ncc5ccc(F)cc45)c3)cc2C(F)(F)F)CC1 | 0.969 | 2 |
| COc1ccc2c(c1)C=C(C(C)(C)C)NS2(=O)=O |  | > 100 |
| CC(=O)OCCCCn1cnc2c(Cl)nc(Nc3ccccc3)nc21 |  | > 100 |
| Nc1nc(Cc2ccccc2)nc(Cc2ccccc2)c1-c1ccccc1 |  | > 100 |
| CCOC(=O)c1csc(-c2nc(CCNC(=O)c3ccccc3)sc2Cl)n1 |  | > 100 |
| CN=C(N)NC |  | > 100 |
| COC(=O)C1(Cc2ccc(C)cc2)Cc2c(C)cccc2C1=O (configuration not stated) |  | > 100 |
| COc1ccc2c(c1)c(=O)c1c(NCCCN(C)C)ccc3ncn2c31 |  | 18.1 |
| Cc1ccc2c(c1)-c1oc(=O)c(-c3cc4ccccc4oc3=O)cc1C(O)O2 (configuration not stated) | 18.5 | 54.1 |
| C(#C[C@@]12CCC[C@@H]1N(Cc1ccccc1)CO2)c1ccc2c(c1)OCO2 |  | > 100 |
| N#CC1=C(S)N(C2OC(CO)C(O)C(O)C2O)C(c2ccccc2)=CC1c1cccs1 (configuration not stated) |  | 30.8 |
